Measurements as given in PubChem BioAssay AID493035 (The Scripps Research Institute Molecular Screening Center, 2011).
Several values for one entry are separate records, joined by “and”; a condition that tells them apart may be missing. Equal entries are not always repeated. About 45 (2%) of roughly 2,000 compounds were called active.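 How the source made its calls: active means inhibition above the mean of all tested compounds plus 3 SD (cut at about 49% in these data); inactive means the rest.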 The list shows a part of the results. Where a SMILES comes first, the peptide text is derived from it.

biological target: Perilipin-5 (Homo sapiens) + 1-acylglycerol-3-phosphate O-acyltransferase ABHD5 (Homo sapiens) (UniProt Q00G26+Q8WTS1); experiment: ABHD5-PLIN5 interaction inhibitors, pilot screen, cell lysate, split luciferase complementation, luminescence, NIH validation set (AID 493035);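 further: 0% = DMSO only wells while the 100% control is not stated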; settings: split G. princeps luciferase complementation, lysates, 4 h, at 7.9 µM, stronger effect = higher value
Chain of UniProt Q00G26 (Q00G26 whole entry, looked up): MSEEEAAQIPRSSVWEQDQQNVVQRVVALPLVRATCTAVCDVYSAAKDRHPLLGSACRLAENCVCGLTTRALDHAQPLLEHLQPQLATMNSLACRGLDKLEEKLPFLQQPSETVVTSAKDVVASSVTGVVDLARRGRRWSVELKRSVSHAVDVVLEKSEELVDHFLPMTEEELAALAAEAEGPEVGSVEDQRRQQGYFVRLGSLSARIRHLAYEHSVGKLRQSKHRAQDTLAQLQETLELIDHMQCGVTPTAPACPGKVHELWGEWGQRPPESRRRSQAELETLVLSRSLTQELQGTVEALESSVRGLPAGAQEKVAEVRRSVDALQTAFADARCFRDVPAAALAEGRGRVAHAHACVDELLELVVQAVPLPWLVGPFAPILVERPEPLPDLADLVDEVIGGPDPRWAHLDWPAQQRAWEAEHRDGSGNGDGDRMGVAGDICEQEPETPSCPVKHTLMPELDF
Chain of UniProt Q00G26 (Q8WTS1 whole entry, looked up): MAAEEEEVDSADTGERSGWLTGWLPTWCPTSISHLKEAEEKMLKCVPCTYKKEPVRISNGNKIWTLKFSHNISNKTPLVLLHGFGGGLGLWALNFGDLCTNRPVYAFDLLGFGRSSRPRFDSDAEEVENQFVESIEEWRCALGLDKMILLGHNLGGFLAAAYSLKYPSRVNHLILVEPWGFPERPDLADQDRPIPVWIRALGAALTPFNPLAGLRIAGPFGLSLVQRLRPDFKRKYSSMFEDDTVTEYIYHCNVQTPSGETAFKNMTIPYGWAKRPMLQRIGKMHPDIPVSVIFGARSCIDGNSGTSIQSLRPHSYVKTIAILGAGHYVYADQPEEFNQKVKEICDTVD

SMILES | inhibition
Nc1ccncc1 | inactive: -4.92%
C[N+]1(C)CCOC(O)(c2ccc(-c3ccc(C4(O)C[N+](C)(C)CCO4)cc3)cc2)C1 (stereo not given) | inactive: -6.43%
C[C@]12CCC(=O)C=C1CC[C@@H]1[C@@H]2C(=O)C[C@]2(C)C(=O)CC[C@@H]12 | inactive: -5.52%
COc1ccc(C(=O)N2CCCC2=O)cc1 | inactive: 5.49%
O=C(O)CCCc1ccc(N(CCCl)CCCl)cc1 | inactive: 2.98%
CC(C)[C@@]1(NC(=O)[C@@H]2C[C@@H]3c4cccc5[nH]cc(c45)C[C@H]3N(C)C2)O[C@@]2(O)[C@@H]3CCCN3C(=O)[C@H](Cc3ccccc3)N2C1=O | inactive: -8.89%
CCOc1ccc(C2C(C#N)=C(N)Oc3c2c(=O)oc2ccccc32)cc1 (stereo not given) | inactive: 16%
CC12CCC3C(CC=C4CC5(CCC43C)OCCO5)C1CCC2=O (stereo not given) | inactive: 1.45%
CC(C)CC12CN3CCN(CC(C3)C1O)C2 (stereo not given) | inactive: 0.3%
Clc1ccc(CSC(Cn2ccnc2)c2ccc(Cl)cc2Cl)cc1 (stereo not given) | inactive: 0.39%
CCCC[N+]1(C)[C@@H]2CC(OC(=O)[C@H](CO)c3ccccc3)C[C@H]1[C@@H]1O[C@@H]12 (stereo not given in full) | inactive: 2.01%
CC(CCc1ccccc1)NC(C)C(O)c1ccc(O)cc1 (stereo not given) | inactive: -7.85%
O=C1CN=C(c2ccccc2F)c2cc(Cl)ccc2N1 | inactive: -9.8%
CC(C)C[C@H](NC(=O)[C@@H]1CCCN1C(=O)[C@@H](N)Cc1ccc(O)cc1)C(=O)NCC(N)=O (H-YPLG-NH2) | inactive: -12.9%
C[C@H](O)[C@H]1CC[C@H]2[C@@H]3CCC4=CC(=O)CC[C@]4(C)[C@H]3CC[C@]12C | inactive: -1.19%
CN1C(=O)N(C)C(=O)C2(Cc3ccccc3N3CCOCC32)C1=O (stereo not given) | inactive: 3.51%
Cc1cc(Cl)ccc1OCC(=O)O | inactive: 5.14%
CCNC(=S)N(C)CCc1cc2c(c(OC)c1C=C1C(=O)N(C)C(=O)N(C)C1=O)OCO2 | inactive: 9.42%
NNC(=O)c1ccc(Cl)cc1 | inactive: 2.19%
COc1cc2c3cc1Oc1cc(ccc1O)C[C@@H]1c4c(cc(OC)c(O)c4Oc4ccc(cc4)C[C@H]3N(C)CC2)CCN1C | inactive: -1.89%
CC(Cc1ccccc1)NCC(=O)Nc1cc(N(C)C)nc2ccccc12 (stereo not given) | inactive: 2.7%
C[C@H]1CCCC(=O)CCC/C=C/c2cc(O)cc(O)c2C(=O)O1 | inactive: -1.44%
Cc1ccc(-n2c(C)cc(/C=C3/C(=O)NC(=O)N(C)C3=O)c2C)cc1 | inactive: 33.2%

SMILES | inhibition
Cc1ccsc1C(=O)C1CCCN(Cc2cc3ccccc3o2)C1 (stereo not given) | inactive: -2.51%
OC1CCCCC1N1CCC(c2ccccc2)CC1 (stereo not given) | inactive: 1.24%
C[C@]12CC[C@@H](O)C[C@@H]1CC[C@@H]1[C@@H]2CC[C@]2(C)[C@@H](O)CC[C@@H]12 | inactive: -3.26%
COc1ccc2c(c1)CC1(CN2C)C(=O)NC(=O)N(CCc2ccccc2)C1=O (stereo not given) | inactive: 3.64%
C[C@H]1CCC/C=C/C2C[C@H](O)CC2[C@H](O)/C=C/C(=O)O1 (stereo not given in full) | inactive: -14.2%
CC(=O)OC1C2CCC1C(N1CCCC1)CC2 (stereo not given) | inactive: 1.91%
CC12CCC3C(CC=C4CC(O)CCC43C)C1C/C(=C\c1cccc(F)c1)C2=O (stereo not given) | inactive: -0.83%
CC12CC[C@H]3[C@@H](CCC4(O)C[C@H](O)CCC34/C=N/NC(=O)Cc3ccccc3)C1(O)CCC2C1=CC(=O)OC1 (stereo not given in full) | inactive: -6.3%
CC12CN3CC(C)(CN(C1)C31CCOCC1)C2=O | inactive: -15.3%
C[C@]12CC[C@@H](O)C[C@@H]1CC[C@@H]1[C@@H]2CC[C@]2(C)C(=O)CC[C@@H]12 | inactive: -8.46%
CC[C@]12C=CCN3CCC4(c5cc(Br)c(OC)cc5N(C)C4[C@@](O)(C(=O)OC)[C@@H]1OC(C)=O)C32 (stereo not given in full) | inactive: -5.38%
C[C@@H]1O[C@@H](O[C@H]2C[C@@H](O)[C@]3(CO)[C@H]4[C@H](O)C[C@]5(C)[C@@H](C6COC(=O)C6)CC[C@]5(O)[C@@H]4CC[C@]3(O)C2)[C@H](O)[C@H](O)[C@H]1O (stereo not given in full) | inactive: -8.05%
O=c1[nH]c2ccccc2n1CCCN1CCC(n2c(=O)[nH]c3cc(Cl)ccc32)CC1 | inactive: -4.38%
C#C[C@]1(O)CC[C@H]2[C@@H]3CCC4=CC(=O)CC[C@]4(C)[C@H]3CC[C@@]21C | inactive: -0.76%
CC(C)[N+](C)(CCC(C(N)=O)(c1ccccc1)c1ccccc1)C(C)C | inactive: -7.44%
O=C1CCCC2=C1C(c1cccnc1)Nc1ccccc1N2 (stereo not given) | inactive: 2.51%
CC[C@@H]1C(=O)OC[C@@H]1Cc1cncn1C | inactive: -5.38% and inactive: -3.68%
C#CCN(C)C(C)Cc1ccccc1 (stereo not given) | inactive: -8.51%
Cc1cc(OCc2cc(C(=O)O)oc2C)c2c3c(c(=O)oc2c1)CCCC3 | inactive: 2.93%
NC(=O)CN1CCCC1=O | inactive: -4.54%
O=C1NC(=O)C2(Cc3ccccc3N3CCCC32)C(=O)N1c1ccc(Cl)cc1 (stereo not given) | inactive: 20.7%
Cc1c2ccncc2c(C)c2c1[nH]c1ccccc12 | inactive: -3.24%
Cc1nc2ccccc2c(=O)n1-c1ccc(C(=O)O)cc1 | inactive: 7.89%

SMILES | inhibition
COc1cc(/C=C2\C(=O)NC(=O)N(c3ccccc3)C2=O)c([N+](=O)[O-])cc1OC | active: 63.5%
C=C1[C@@H](C)[C@H]2[C@H](Cc3ccccc3)NC(=O)[C@]23OC(=O)/C=C/[C@H](O)CCC[C@@H](C)C/C=C/[C@H]3[C@@H]1O | inactive: -1.05%
C[N+]1(C)[C@@H]2CC[C@H]1CC(OC(=O)C(CO)c1ccccc1)C2 (stereo not given in full) | inactive: 3.11%
CCOC(=O)C1=C(C)OC(N)=C(C(=O)OCC)[C@@]12C(=O)N(CC(N)=O)c1ccccc12 | inactive: -9.23%
CC/C(=C\C=C\[C@@H]1C=C[C@@H]2CCC[C@H]2[C@@H]1C(=O)c1ccc[nH]1)[C@@H]1O[C@@H]([C@@H](C)C(=O)O)CC[C@@H]1C | inactive: 0.4%
Cc1cccc(C)c1NC1=NCCCS1 | inactive: -1.36%
CCn1ccnc1CN1CCCC(C(=O)c2cc(F)ccc2OC)C1 (stereo not given) | inactive: -5.2%
CCNC(=O)[C@H]1O[C@@H](n2cnc3c(N)ncnc32)[C@H](O)[C@@H]1O | inactive: 4.54%
CN1CC[C@@]23CCCC[C@@H]2[C@@H]1Cc1ccc(O)cc13 | inactive: -1.48%
C[N+](C)(C)Cc1ccccc1 | inactive: -2.04%
CCC(COC(=O)c1cc(OC)c(OC)c(OC)c1)(c1ccccc1)N(C)C (stereo not given) | inactive: 1.32%
O=c1[nH]c(=S)n(-c2ccccc2)c(O)c1/C=N/N1CCCCC1c1cccnc1 (stereo not given) | inactive: -0.01%
CN1C2CCC1CC(OC(=O)CCN1CCCC1)C2 (stereo not given) | inactive: -6.29%
O=C1C(=O)c2ccccc2-c2ccccc21 | active: 69.8%
CCOC(=O)C(C)Oc1cc(C)cc2oc(=O)c3c(c12)CCCC3 (stereo not given) | inactive: 6.91%
COP(=S)(OC)SCN1C(=O)c2ccccc2C1=O | active: 93.3%
COC1=CC(=O)OC(/C=C/c2ccccc2)C1 (stereo not given) | inactive: -2.71%
C[C@H]1CCC[C@H](O)CCCCCc2cc(O)cc(O)c2C(=O)O1 | inactive: -3.64%
CC12CN3CC(C)(CN(C1)C3c1cccs1)C2O (stereo not given) | inactive: -0.84%
Clc1ccc(C2NCCc3[nH]cnc32)cc1 (stereo not given) | inactive: -9.45%
COc1ccc(Cc2nccc3cc(OC)c(OC)cc23)cc1OC | inactive: -14.7%
CC1CCC[C@H](O)CCCCCc2cc(O)cc(O)c2C(=O)O1 (stereo not given in full) | inactive: -0.89%
CC(C)(C)NCC(O)c1cc(Cl)c(N)c(Cl)c1 (stereo not given) | inactive: -1.96%

SMILES | inhibition
CN1C2CCC1CC(OC(=O)c1ccc(Cl)cc1)C2 (stereo not given) | inactive: 2.67%
CCOC(=O)c1cc2c(cn1)[nH]c1ccccc12 | inactive: -11.3%
NCCc1ccc(O)cc1 | inactive: -0.96%
C[N+]1(C)CCN(c2ccccc2)CC1 | inactive: 3.04%
COc1ccc2c3c([nH]c2c1)C(C)=NCC3 | inactive: -1.05%
Fc1ccc(C(OCCN2CCCC2)c2ccc(Br)cc2)cc1 (stereo not given) | inactive: -5%
[N-]=[N+]=CC(=O)OC[C@H](N)C(=O)O | inactive: 1.86%
O=S(=O)(c1ccc(F)cc1)N1CCCCC1c1cccnc1 (stereo not given) | inactive: -5.97%
CC(=O)C1=C(C)OC(N)=C(C(=O)OC(C)C)C12C(=O)Nc1ccccc12 (stereo not given) | inactive: -0.22%
CC(C)NC(C)C(=O)c1ccc2ccccc2c1 (stereo not given) | inactive: 1.56%
CCN1CC2(COC(=O)c3ccccc3N)CCC(OC)C34C5CC6C(OC)CC(O)(C5C6OC)C(O)(C(OC)C23)C14 (stereo not given) | inactive: 0.04%
COc1ccc(OC)c([C@@H](O)[C@H](C)NC(C)(C)C)c1 | inactive: 2.3%
C[C@H]1OC[C@@H](C[N+](C)(C)C)O1 | inactive: -3.43%
O=C1CSC2N1CCNC21CCCCC1 (stereo not given) | inactive: -2.6%
Clc1ccc(COC(Cn2ccnc2)c2ccc(Cl)cc2Cl)c(Cl)c1 (stereo not given) | inactive: 4.9%
COc1cccc(Oc2c(C)oc3cc(OC(=O)N(C)C)ccc3c2=O)c1 | inactive: 6.76%
COc1ccc(CN2CC3CC(C2)c2cccc(=O)n2C3)cc1OC (stereo not given) | inactive: -4.44%
COc1ccc(OC)c(C(O)C(C)N)c1 (stereo not given) | inactive: 6.1%
CN1[C@@H]2CC[C@H]1CC(OC(=O)C1C=Nc3ccccc31)C2 (stereo not given in full) | inactive: -3.7%
CCCC(C)(COC(N)=O)COC(=O)NC(C)C (stereo not given) | inactive: -7.91%
C[C@]12CCC(=O)C=C1CC[C@@H]1[C@@H]2CC[C@]2(C)C(=O)CC[C@@H]12 | inactive: -5.66%
